# Reference: PubChem BioAssay AID1671194 (National Center for Advancing Translational Sciences (NCATS), 2021)
# About 240 (0.17%) of roughly 140,000 compounds were called active. Inconclusive means that the source gave no clear call. Such entries were picked first, then a sample of the others. Calls follow the shape of the dose curve; as a rule, active = well fitted inhibition curve with a large enough effect; inconclusive = small, poorly fitted or top-dose-only effect; inactive = no such curve, though single readings can be large or run the other way. Where the call is inconclusive, the potency comes from a doubtful curve fit.
# Experiment: Primary qHTS assay for inhibitors of alpha-synuclein gene (SNCA) expression; also: nearly all actives have a fitted effect of over 45% in size;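 as to activity change, negative = inhibition: plate controls were DMSO cells for no effect and cell-free wells for full effect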
# Details: HEK-293 SNCA-luciferase knock-in, luminescence, 24 h; activity change, negative = inhibition: at 57.2 µM (top of the series)
# Potency is read from the fitted curve at half-maximal effect; tags tell the direction and shape of the fitted curve.
Structure (SMILES),Potency,"activity change, negative = inhibition"
CCC(CC)c1cc([C@H]2CN3CC[C@H]2C[C@@H]3CNC2CCN(C)CC2)nc(-c2ccncc2)n1,"inconclusive: 10 µM [inhibitor, partial curve, poor fit]",
COc1cc2c(cc1Oc1ccccc1)NC(=O)C21CCN(Cc2ccccc2)CC1,"inconclusive: 17.8 µM [inhibitor, partial curve]",
Cn1nc(C2CCCCC2)cc1[C@H]1CN2CC[C@H]1C[C@@H]2CNC(=O)c1cccs1,,inactive: 29.6% [at 87.6 µM]
Cn1nc(-c2ccccc2)cc1[C@H]1CN2CC[C@H]1C[C@@H]2CNC(=O)N1CCOCC1,"inconclusive: 12.6 µM [inhibitor, single point]",
COc1cc2c(cc1CCc1ccccc1)N(C(=O)Cc1ccc3c(c1)OCO3)CC21CCN(C(C)=O)CC1,,inactive: -9.46%
O=C(Nc1ccc(Br)cc1)c1cc(Br)cc(Br)c1O,,inactive: 33.6% [at 25.6 µM]
COc1cc(C(=O)N2CC[C@@H](O)[C@@H](N)C2)cc2nc(-c3cc4ccccc4n3CC3CC3)n(C)c12,,inactive: -2.65%
COc1cc2c(cc1OCc1ccccc1)N([S+](=O)([O-])c1cccc3cccnc13)CC21CCN(C)CC1,"inconclusive: 39.8 µM [inhibitor, single point]",
COc1ccc(CC(=O)N2Cc3ccccc3CC3(CCCCN3C)C2)cc1 (stereo not drawn),"inconclusive: 0.708 µM [inhibitor, full curve, poor fit]",
COc1cc2c(cc1OCc1ccccc1)NC(=O)C21CCN(Cc2ccncc2)CC1,,inactive: 52.4% [at 87.6 µM]
COc1ccc(NC(=O)CN2C(=O)C(C)N=C(c3ccccc3F)c3cc(Cl)ccc32)c(OC)c1 (stereo not drawn),"inconclusive: 14.1 µM [inhibitor, partial curve, poor fit]",
N#Cc1cccc(NC(=O)NC[C@H]2C[C@@H]3CCN2C[C@@H]3CN2CCN(c3ccccc3)CC2)c1,"inconclusive: 39.8 µM [inhibitor, single point]",
Cc1nc(-c2ccccc2)cc([C@H]2CN3CC[C@H]2C[C@@H]3CN(Cc2ccco2)Cc2ccco2)n1,"inconclusive: 35.5 µM [inhibitor, single point]",
CC[C@H]1CN2CC[C@H]1C[C@@H]2CNC(=O)Nc1cccc(C(F)(F)F)c1,"inconclusive: 1 µM [inhibitor, single point]",
C#C[C@H]1CN2CC[C@H]1C[C@@H]2CNC(=O)COCC(=O)O,"inconclusive: 3.98 µM [inhibitor, full curve, poor fit]",
C[C@H]1CCCC=CC2C[C@H](O)C[C@@H]2[C@H](O)C=CC(=O)O1 (stereo partly drawn),"inconclusive: 0.0271 µM [inhibitor, full curve]",
CCC(CC)c1cc([C@H]2CN3CC[C@H]2C[C@@H]3COC(=O)Nc2ccc(C(C)(C)C)cc2)nc(-c2ccncc2)n1,"inconclusive: 31.6 µM [inhibitor, partial curve, poor fit]",
CCn1cnc2c(Nc3cccc(Cl)c3)nc(N[C@@H]3CCCC[C@@H]3N)nc21,"inconclusive: 22.4 µM [inhibitor, partial curve, poor fit]",
O=c1ccc(-c2cccs2)c2n1C[C@H]1C[C@@H]2CN(S(=O)(=O)c2cccc(C(F)(F)F)c2)C1,,inactive: 23.5%

Structure (SMILES),Potency,"activity change, negative = inhibition"
Cc1oc(-c2ccc(Cl)cc2)nc1CN1C(=O)CN=C(c2ccccc2)c2ccccc21,"inconclusive: 25.1 µM [inhibitor, single point]",
O=c1[nH]c2ccc(Cl)cc2c(N[C@@H]2CN3CCC2CC3)c1-c1nc2ccccc2[nH]1,"inconclusive: 0.108 µM [inhibitor, full curve, poor fit]",
C=C[C@H]1CN2CC[C@H]1C[C@@H]2CNC(=O)c1cc(OC)c(OC)c(OC)c1,,inactive: -1.98% [at 87.6 µM]
O=C(NCc1ccncc1)C1CNCC12CCOCC2 (stereo not drawn),,inactive: -6.7%
COc1ncccc1-c1cnc2[nH]cc(CC(=O)N3CCN(C)CC3)c2c1,,inactive: 8.73% [at 87.6 µM]
O=C1Nc2ccccc2C12CCN(Cc1ccc(F)cc1)CC2,"inconclusive: 8.91 µM [inhibitor, full curve, poor fit]",
O=C(O)CSCC(=O)N1C[C@@H]2C[C@H](C1)c1ccc(-c3cccc(C(F)(F)F)c3)c(=O)n1C2,,inactive: -7.71%
Cc1ccc([N+](=O)[O-])[c]2c1[O][Hg]2,"inconclusive: 3.55 µM [inhibitor, partial curve, poor fit]",
Cn1nc(-c2cccs2)cc1[C@H]1CN2CC[C@H]1C[C@@H]2CNC(=O)Nc1ccccc1,"inconclusive: 11.2 µM [inhibitor, single point]",
COc1cc2c(cc1CCc1ccccc1)N(C(=O)c1ccc3[nH]ccc3c1)CC21CCN(C(C)=O)CC1,"inconclusive: 28.2 µM [inhibitor, single point]",
COc1cc2c(cc1Oc1ccccc1)NC(=O)C21CCN(Cc2cccc(O)c2)CC1,"inconclusive: 56.2 µM [inhibitor, single point]",
CCOC(=O)[C@H]1CN(C(=O)CC2CCCC2)[C@]2(C)C(=O)N(CC3CC3)c3ccccc3[C@H]12,"inconclusive: 17.8 µM [inhibitor, single point]",
COc1ccc(OC)c(S(=O)(=O)NC[C@H]2C[C@@H]3CCN2C[C@@H]3c2cc(-c3ccc(F)cc3)nn2C)c1,"inconclusive: 39.8 µM [inhibitor, single point]",
Cn1nc(C(=O)N[C@@H]2COCC[C@@H]2OCc2cscn2)c2ccccc21,"inconclusive: 5.01 µM [inhibitor, full curve]",
CC(=O)NCCNC(=O)[C@H]1CN2CCC1C[C@@H]2Cn1cc(CSc2ccccc2)nn1 (stereo partly drawn),"inconclusive: 5.01 µM [inhibitor, full curve, poor fit]",
COc1cc2c(cc1OC1CCCC1)NC(=O)C21CCN(Cc2ccccc2O)CC1,"inconclusive: 8.91 µM [inhibitor, full curve, poor fit]",
C[C@]12CCC(=O)C(O)=C1CC[C@@H]1[C@H]3CCC(=O)[C@@]3(C)CC[C@@H]12,,inactive: 6.6%
CC(C)(C)c1ccc(C(=O)Nc2ccc(Cl)cc2C(=O)c2ccccc2)cc1,"inconclusive: 7.08 µM [inhibitor, single point]",
O=[S+]1([O-])NCC2(CCN(CC3CCCCC3)C2)Oc2ncccc21 (stereo not drawn),,inactive: 8.12%
